Some of the results follow. The full chains were built here from the parent and the listed change. Values near 0.05 are background.
B1: TEV protease; numbered along this chain (parent)
chain: MGESLFKGPRDYNPISSSICHLTNESDGHTTSLYGIGFGPFIITNKHLFRRNNGTLVVQSLHGVFKVKDTTTLQQHLVDGRDMIIIRMPKDFPPFPQKLKFREPQREERICLVTTNFQTKSMSSMVSDTSCTFPSGDGIFWKHWIQTKDGQCGSPLVSTRDGFIVGIHSASNFTNTNNYFTSVPKNFMELLTNQEAQQWVSGWRLNADSVLWGGHKVFMVKPEEPFQPVKEATQL

Variants of: B1
Assay: raw area under fraction-flipped curve 0-4 h after induction (AUC4h, not background-subtracted), DNA-recorder readout of cleavage of the substrate (dimensionless); higher = more cleavage of the substrate by the protease variant
Conditions: temperature: 34 °C; time window: 0-4 h after rhamnose induction
Experimental: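 In vivo DNA recorder in E. coli TOP10(DE3) ΔrhaA at 34 °C. Each TEVp single-site mutant (parent TEVp 0) is paired with a single-site variant of the 7-mer TEVs (canonical ENLYFQ|S). The substrate sits between flexible linkers in a Bxb1-sfGFP-TEVs-SsrA fusion, so cleavage stabilises Bxb1 and speeds flipping of a recombination array, read by NGS. The value is the raw area under the fraction-flipped curve over 0-4 h after rhamnose induction (AUC4h), with ≥20 reads per time point. It is not background-subtracted; inactive controls average about 0.047.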
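Note: Bxb1 expression induced with 0.2% (w/v) L-rhamnose at OD600 near 0.5, cultures sampled hourly, flipped fraction per protease–substrate barcode pair counted by paired-end Illumina sequencing.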

| Variant | area with substrate CNLYFQS | area with substrate DNLYFQS | area with substrate FNLYFQS | area with substrate HNLYFQS | area with substrate KNLYFQS | area with substrate LNLYFQS | area with substrate NNLYFQS | area with substrate PNLYFQS | area with substrate QNLYFQS | area with substrate SNLYFQS | area with substrate TNLYFQS | area with substrate VNLYFQS | area with substrate WNLYFQS | area with substrate YNLYFQS | area with substrate GNLYFQS | area with substrate INLYFQS | area with substrate MNLYFQS | area with substrate RNLYFQS |
| --- | --- | --- | --- | --- | --- | --- | --- | --- | --- | --- | --- | --- | --- | --- | --- | --- | --- | --- |
| T23C | 0.0656 | 0.0562 | 0.0582 | 0.0622 | 0.0652 | 0.082 | 0.0504 | 0.0728 | 0.0809 | 0.0752 | 0.0673 | 0.0924 | 0.0642 | 0.0482 | – | – | – | – |
| T23N | 0.0471 | 0.0596 | 0.06 | 0.0517 | 0.0488 | – | 0.0576 | 0.0633 | 0.0628 | 0.074 | 0.0622 | – | 0.0577 | – | 0.0512 | 0.0564 | – | – |
| P9F | 0.0593 | 0.0565 | 0.103 | 0.0671 | 0.0597 | 0.0562 | 0.0727 | 0.0605 | – | 0.063 | 0.057 | 0.0642 | 0.0579 | 0.0505 | 0.0714 | – | 0.0715 | 0.0709 |
| P9L | 0.078 | 0.0996 | – | 0.0725 | 0.0643 | – | – | 0.0681 | – | – | 0.0742 | – | – | 0.0617 | 0.0978 | 0.0823 | – | 0.0589 |
| N13I | 0.0678 | 0.0709 | 0.0631 | 0.0599 | – | – | – | 0.059 | – | 0.0773 | 0.0606 | 0.056 | 0.0595 | 0.0579 | 0.0657 | – | 0.0667 | – |
| N13L | 0.0832 | 0.0775 | 0.0604 | 0.068 | – | 0.0676 | 0.0693 | 0.0839 | 0.0848 | 0.0652 | 0.067 | 0.0771 | 0.0625 | 0.0666 | – | 0.0693 | 0.0785 | – |
| N13P | 0.0596 | 0.0719 | – | 0.0636 | 0.0502 | 0.0477 | 0.0618 | – | – | 0.0632 | 0.0582 | 0.0563 | 0.0622 | 0.047 | – | 0.0632 | 0.0768 | – |
| N13E | 0.0749 | 0.094 | – | 0.0656 | – | 0.0737 | 0.0779 | 0.0759 | – | 0.0564 | 0.0679 | 0.0599 | 0.065 | 0.0398 | 0.0625 | – | 0.0724 | – |
| S18A | 0.0727 | 0.0692 | 0.0609 | 0.0552 | 0.0716 | – | – | – | – | 0.076 | 0.0668 | – | 0.0729 | – | – | 0.057 | – | – |
| S4C | 0.0718 | 0.0727 | – | 0.058 | – | 0.0554 | 0.0716 | 0.0715 | – | 0.0609 | 0.0705 | 0.0539 | 0.0551 | 0.0638 | – | 0.0675 | 0.0489 | – |
| S4H | 0.0691 | 0.0935 | 0.0592 | 0.0753 | 0.0635 | 0.0443 | 0.0789 | 0.0716 | – | – | 0.109 | – | 0.05 | 0.0254 | 0.0681 | 0.0715 | 0.0631 | 0.0597 |
| E25W | 0.0738 | 0.0721 | – | 0.0655 | – | 0.0608 | 0.0629 | 0.0766 | – | – | 0.0718 | – | 0.0491 | – | – | 0.067 | 0.0414 | 0.0622 |
| E25N | 0.069 | 0.0874 | 0.0625 | 0.0627 | 0.0689 | 0.0627 | 0.0676 | 0.0799 | 0.0693 | – | 0.0564 | 0.0683 | 0.0651 | 0.0577 | – | 0.0647 | – | – |
| E25R | 0.061 | 0.0818 | – | 0.0689 | 0.0543 | 0.0901 | 0.0636 | 0.0733 | – | 0.0592 | 0.0606 | 0.0576 | 0.0526 | 0.0581 | – | 0.0836 | 0.0653 | 0.0687 |
| E25G | 0.0761 | 0.0714 | 0.0545 | 0.0586 | 0.0455 | 0.056 | – | 0.0665 | 0.0611 | 0.0572 | 0.0562 | 0.0478 | 0.0488 | 0.0515 | 0.0635 | 0.0437 | 0.0665 | – |
| E25Y | 0.0714 | 0.0777 | 0.0782 | 0.0805 | 0.0653 | 0.0702 | 0.0756 | 0.0574 | 0.0586 | 0.0631 | 0.0652 | 0.064 | 0.0616 | 0.0566 | 0.0677 | 0.0781 | 0.0704 | 0.0591 |
| P14A | 0.0686 | 0.0369 | 0.0666 | 0.0828 | – | – | 0.0566 | 0.0807 | – | 0.084 | 0.0886 | 0.0727 | 0.0687 | 0.0704 | 0.068 | 0.0796 | – | 0.0667 |
| P14T | 0.0637 | 0.0691 | 0.0618 | 0.0606 | – | 0.0498 | 0.074 | 0.0615 | 0.0723 | 0.0599 | 0.0631 | 0.0659 | 0.0569 | 0.0826 | 0.0642 | 0.0687 | 0.0775 | 0.0674 |
| P14Y | 0.0712 | 0.0635 | 0.1 | 0.0692 | 0.087 | 0.0699 | – | 0.0778 | 0.0977 | 0.0532 | 0.0568 | – | 0.0611 | 0.0589 | 0.0656 | 0.0818 | – | – |
| P14M | 0.0662 | 0.0496 | 0.0545 | 0.0686 | – | 0.0609 | 0.0722 | – | – | 0.0671 | 0.0766 | 0.0643 | 0.0658 | 0.0642 | 0.0832 | – | 0.0941 | 0.0592 |
| D11V | 0.0581 | 0.0799 | 0.0497 | 0.058 | 0.0568 | – | 0.0672 | 0.0636 | – | 0.0506 | 0.0684 | 0.0567 | 0.0595 | 0.0511 | – | 0.0636 | 0.0624 | – |
| L22E | 0.0525 | 0.0404 | 0.0379 | 0.0468 | 0.0451 | 0.0422 | 0.0407 | 0.0481 | – | 0.0541 | 0.0403 | 0.0454 | 0.0442 | 0.0407 | 0.0502 | 0.0483 | 0.0571 | 0.0418 |
| L22I | 0.0835 | 0.0918 | 0.0702 | 0.0479 | 0.0621 | 0.0688 | 0.0641 | 0.0679 | 0.075 | 0.0879 | 0.0764 | 0.0765 | 0.0632 | – | 0.0506 | 0.0585 | 0.0811 | – |
| L22P | 0.0473 | 0.0643 | 0.0451 | 0.0304 | 0.044 | 0.0401 | 0.032 | 0.036 | 0.053 | 0.0455 | 0.0458 | – | 0.0462 | 0.0462 | 0.0404 | 0.0328 | 0.0457 | 0.0433 |
